Laboratory results: PMC7560015, “Indoline-6-Sulfonamide Inhibitors of the Bacterial Enzyme DapE” (Antibiotics, 2020)

Compound	melting point (melting range) [°C]	melting point (softens) [°C]
CC(=O)N1CCc2cc(Cl)c(S(=O)(=O)NCCC(C)C)cc21 [10a, 1-Acetyl-5-Chloro-N-Isopentylindoline-6-Sulfonamide]	179.1 to 180.4	174
CC(=O)N1CCc2cc(Br)c(S(=O)(=O)NCC(C)C)cc21 [9a, 1-Acetyl-5-Bromo-N-Isobutylindoline-6-Sulfonamide]	225.4 to 226.1	215
CC(=O)N1CCc2cc(Br)c(S(=O)(=O)NC(C)(C)C)cc21 [9d, 1-Acetyl-5-Bromo-N-(Tert-Butyl)Indoline-6-Sulfonamide]	235.7 to 236.1	224.4

Like-named read-outs stand apart in the source and are kept apart here. Entries with a single value are a further part of the results.
